A short description of the assay: qHTS Assay for Lipid Storage Modulators (AID 1519). The note with it: Drosophila S3 cells, BODIPY lipid droplet/cell ratio, laser cytometry, cells loaded with oleic acid. The method in brief: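 Cells seeded at 5,000 per well were treated with compounds over a concentration series and loaded with oleic acid (400 uM, as added). Lipid droplet fluorescence (488 nm excitation, 500-530 nm channel) was read by laser-scanning cytometry and normalized to 20 uM Triacsin C.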
(In general: qHTS replaces the single test concentration by a dilution series.)

[1] abbreviates: measured here: cell count channel max response.
Setting [2] is: measured here: cell number channel AC50.
Setting [3] is: measured here: lipid (BODIPY) channel AC50.
Where [4] appears, read: measured here: lipid channel max response.

“And” between values parts separate entries of the source, which are not always exact repeats. Identical values can stand only once. Some of the results follow. Further columns of the screen follow, without active or inactive calls. Compounds called inactive in the main read-out are mostly missing here. Potencies come from curve fits of mixed quality, noted in brackets.

Experimental findings from PubChem BioAssay (NCATS) are described below.
Tags describe the fitted curve by direction and shape.

In general, AC50 refers to the midpoint of the concentration-response curve, whichever way the signal moves. Consider `CC[C@]1(O)CC(O[C@@H]2CC(N(C)C)C(O)C(C)O2)c2c(cc3c(c2O)C(=O)c2c(O)cccc2C3=O)C1C(=O)OC` (stereo partly specified), for which the max response under setting [1] turned out to be 32% and the max response under setting [4] is -92.5%. The concentration at half-maximal activity (AC50) was 39.8 µM [rising, single point] under setting [2] and 8.91 µM [falling, partial curve] under setting [3].

Consider `CC(C)C[C@H]1C(=O)N2CCC[C@@H]2[C@]2(O)O[C@](NC(=O)[C@@H]3C=C4c5cccc6[nH]c(Br)c(c56)C[C@H]4N(C)C3)(C(C)C)C(=O)N12`, for which the max response under setting [1] was determined as 67.5% and the max response under setting [4] was 55.5%. In addition, the AC50 is 7.08 µM [rising, full curve, poor fit] under setting [2] and 4.47 µM [rising, full curve, poor fit] under setting [3].

With `COc1cccc2c1cc([N+](=O)[O-])c1c(C(=O)O)cc3c(c12)OCO3`, the max response under setting [1] was 29.3% and 79.5%; the max response under setting [4] was 53.9% and 92%. For the same compound, the concentration at half-maximal activity (AC50) was 35.5 µM [rising, partial curve, poor fit] under setting [2]; 35.5 µM [rising, single point] and 35.5 µM [rising, partial curve, poor fit] under setting [3].

With `CCCCCCCC/C=C\CCCCCCCC(N)=O`, the max response was determined as 31.2% under setting [1] and 40.2% under setting [4]. Also, the concentration at half-maximal activity (AC50) by setting is: under setting [2], 31.6 µM [rising, single point]; under setting [3], 35.5 µM [rising, single point].

As for `Ic1cncc(OC[C@@H]2CCN2)c1`, the max response under setting [1] turned out to be 66.4% and the max response under setting [4] is 83.4%. In addition, the AC50 was 35.5 µM [rising, partial curve, poor fit] under setting [2] and 35.5 µM [rising, partial curve, poor fit] under setting [3].

As for `c1ccc(CCCCN2CCC(c3ccccc3)CC2)cc1`, the max response was 59.5% under setting [1] and 75.1% under setting [4]. Besides, the concentration at half-maximal activity (AC50) runs as follows: under setting [2], 35.5 µM [rising, partial curve, poor fit]; under setting [3], 35.5 µM [rising, partial curve, poor fit].

Take `NC[C@@H](CC(=O)O)c1ccc(Cl)cc1`: the max response by setting is: under setting [1], 42.5%; under setting [4], 51.8%. The AC50 under setting [2] was 39.8 µM [rising, single point] and the AC50 under setting [3] is 39.8 µM [rising, single point].

As to `CCCCC/C=C\C/C=C\C/C=C\C/C=C\CCCC(=O)O`, the max response under setting [1] was found to be 51.2% and the max response under setting [4] stood at 63%. The concentration at half-maximal activity (AC50) is, setting by setting: under setting [2], 31.6 µM [rising, partial curve, poor fit]; under setting [3], 11.2 µM [rising, single point].

For the compound `COc1cc2c(cc1OC)C1C(=O)c3c(cc4c(c3O)C=CC(C)(C)O4)OC1CO2` (stereo unspecified), the max response was -33.9% under setting [1] and -86.8% under setting [4]. For the same compound, the concentration at half-maximal activity (AC50) runs as follows: under setting [2], 7.94 µM [falling, full curve, poor fit]; under setting [3], 7.08 µM [falling, full curve].

With `CCCN(CCC)C1Cc2cc(OC)c(OC)cc2C1`, the max response under setting [1] came to 68.3% and the max response under setting [4] is 73.3%. The AC50 by setting is: under setting [2], 3.16 µM [rising, full curve, poor fit]; under setting [3], 3.16 µM [rising, full curve].

Regarding `C=CCN1C[C@H](C)N([C@H](c2ccc(C(=O)N(CC)CC)cc2)c2cccc(O)c2)C[C@H]1C`, the max response by setting is: under setting [1], 77.1%; under setting [4], 101%. Besides, the AC50 is 28.2 µM [rising, partial curve, poor fit] under setting [2] and 28.2 µM [rising, partial curve, poor fit] under setting [3].

As to `Nc1ncnc2c1ncn2[C@@H]1O[C@H](COP(=O)(O)CP(=O)(O)OP(=O)(O)O)[C@H](O)[C@H]1O`, the max response was -68.4% under setting [1] and -71.2% under setting [4]. Further, the concentration at half-maximal activity (AC50) runs as follows: under setting [2], 22.4 µM [falling, partial curve]; under setting [3], 22.4 µM [falling, partial curve].

As to `CN1[C@@H]2CC[C@H]1CC(O[C@@H](c1ccccc1)c1ccc(Cl)cc1)C2` (stereo partly specified), the max response by setting is: under setting [1], 49.6%; under setting [4], 60.7%. Moreover, the AC50 is 35.5 µM [rising, single point] under setting [2] and 35.5 µM [rising, single point] under setting [3].

As to `CN(C)C1C(=O)C(C(N)=O)=C(O)[C@@]2(O)C(=O)C3=C(O)c4c(O)cccc4[C@](C)(O)C3C(O)C12` (stereo partly specified), the max response came to 32.7% under setting [1] and 59.3% under setting [4]. For the same compound, the AC50 was 5.62 µM [rising, full curve] under setting [2] and 10 µM [rising, partial curve] under setting [3].

Turning to `O=CN1CC2CC(C1)c1cccc(=O)n1C2` (stereo unspecified), the max response was determined as 51.1% under setting [1] and 50% under setting [4]. In addition, the AC50 is 35.5 µM [rising, partial curve, poor fit] under setting [2] and 28.2 µM [rising, partial curve, poor fit] under setting [3].

In the case of `Oc1ccc2c3c1O[C@H]1c4[nH]c5ccccc5c4C[C@]4(O)[C@H](C2)N(CC2CC2)CC[C@@]314`, the max response reads like this: under setting [1], 32.1%; under setting [4], 31%. The AC50 by setting is: under setting [2], 6.31 µM [rising, full curve, poor fit]; under setting [3], 4.47 µM [rising, full curve, poor fit].

As for `CNC(=O)Oc1ccc2c(c1)[C@@]1(C)CCN(C)C1N2C` (stereo partly specified), the max response is 36.7% and 14% under setting [1]; 50.9% and 31.3% under setting [4]. Besides, the AC50 under setting [2] is 39.8 µM [rising, single point] and the half-maximal activity concentration (AC50) under setting [3] was 3.98 µM [rising, partial curve, poor fit].

As to `NCC(N)C(=O)c1ccccc1` (stereo unspecified), the max response runs as follows: under setting [1], 30.4%; under setting [4], 41.6%. The AC50 was 35.5 µM [rising, single point] under setting [2] and 31.6 µM [rising, single point] under setting [3].

For `CN1C2CC(OC(=O)C(CO)c3ccccc3)CC1C1OC12` (stereo unspecified), the max response is, setting by setting: under setting [1], -3.98%; under setting [4], -2.48%. The concentration at half-maximal activity (AC50) is 5.62 µM [falling, full curve, poor fit] under setting [2] and 5.62 µM [falling, full curve, poor fit] under setting [3].
